Not every detail of the peptide structures is certain; ends, links or a residue may be inferred. *1 amine or outer side, *2 acyl side, *3 side chain or, on linkers, in order; H or OH if unused. Where a SMILES comes first, the peptide text is derived from it. Bridges are numbered along the chain shown (N, C = ends). Roman numbers before positions name the chains, in order. [ ]: non-standard residue; d: D form. CO(CH2)2(OCH2CH2)17CO = O=C(CCOCCOCCOCCOCCOCCOCCOCCOCCOCCOCCOCCOCCOCCOCCOCCOCCOCCC(=O)[*:2])[*:1]; X1 = O=C(OCCOCCOCCOCCOCCOCCOCCOCCOCCOCCOCCOCCOCCOCCOCCOCCOC(=O)[*:2])[*:1]; Phe(4-guanidino) = N=C(N)Nc1ccc(C[C@H](N)C(=O)O)cc1; Trp(7-aza) = N[C@@H](Cc1c[nH]c2ncccc12)C(=O)O; hTyr = N[C@@H](CCc1ccc(O)cc1)C(=O)O; tBuAla = CC(C)(C)C[C@H](N)C(=O)O; Tle = CC(C)(C)[C@H](N)C(=O)O
Key:
ERK = experiment: pERK AlphaLISA assay (ERK phosphorylation, p-Erk1/2 Thr202/Tyr204) in HUVEC lysate; format: cell-based, human; conditions: HUVEC lysate of the pVEGFR assay; % activity, maximum VEGF165a signal = 100%, unstimulated = 0%; peptide 1.25, 5, 20 nM (dimer structures 42-57)
Experimental: To evaluate the intracellular signaling activation ability of the VEGFR-2 agonist peptides of the present invention, ERK phosphorylation was verified. Using the lysate employed in the pVEGFR AlphaLISA assay, the assay was performed according to the protocol of the AlphaLISA SureFire Ultra p-Erk1/2 (Thr202/Tyr204) Assay Kit (PerkinElmer). Signal detection was performed using a SpectraMax Paradigm multimode microplate reader (Molecular Devices). The obtained signals were analyzed using GraphPad Prism, and % activity was calculated with the maximum signal induced by VEGF165a set as 100% and the unstimulated control as 0%.
The VEGF165a concentration was evaluated at five points (0.08, 0.31, 1.25, 5, 20 nM) using 1/4-fold dilutions starting from 20 nM to determine the maximum value (100%). Peptide concentrations tested were: 3.2, 16, 80 nM for dimer structure […], 100 nM for dimer structures numbers 2-41; and 1.25, 5, 20 nM for dimer structures numbers 42-57.
For % activity, peptides showing ≥50% activity at 3.2 nM were designated 1-A, those showing ≥50% activity at 16 nM were designated 1-B, those showing ≥50% activity at 80 nM were designated 1-C, and those showing ≥1% but <50% activity at 80 nM were designated 1-D.
Peptides showing 50% or more activity at 10 nM were designated 2-A, those showing 50% or more activity at 100 nM were designated 2-B, and those showing 1% or more but less than 50% activity at 100 nM were designated 2-C.
Peptides showing 50% or more activity at 1.25 nM were designated 3-A, those showing 50% or more activity at 5 nM were designated 3-B, those showing 50% or more activity at 20 nM were designated 3-C, and those showing 1% or more but less than 50% activity at 20 nM were designated 3-D.

HUVEC = HUVEC proliferation promotion evaluation (CellTiter-Glo); format: cell-based, human; conditions: 2 days culture, % activity, maximum VEGF165a signal = 100%, peptide 0.31, 1.25, 5, 20 nM
Experimental: To evaluate the biological activity of the VEGFR-2 agonist peptide of the present invention, an HUVEC proliferation promotion evaluation was conducted. HUVECs cultured as described above were detached using Tryple (Thermo Fisher Scientific). They were then seeded at 10,000 cells per well onto Nunc™ MicroWell™ 96 -Well, Nunclon Delta-Treated, Flat-Bottom Microplate (cat. #136101) . After 24 hours, cells were starved by replacing with EBM-2 medium (LONZA) containing 0.5% FBS (Thermo Fisher Scientific), 0.1% Heparin (included with the above Lonza CC-3162), and 0.1% Gentamicin (Nacalai) and cultured for 18 hours. Subsequently, Recombinant Human VEGF 165a Protein (R&D Systems) or the peptide was added, and the cells were cultured for 2 days at 37°C in a CO2 incubator. Assays were performed according to the CellTiter-Glo (Promega) kit protocol, and signals were detected using a SpectraMax Paradigm multimode microplate reader (Molecular Devices) was used for signal detection. The obtained signals were analyzed using GraphPad Prism, and % activity was calculated with the maximum signal induced by VEGF165a set as 100% and the unstimulated control as 0%.
The VEGF165a concentration was evaluated at six points (0.006, 0.03, 0.16, 0.8, 4, 20 nM) using 1/5-fold dilutions starting from 20 nM to determine the maximum value (100%). For peptide concentrations, dimer structures #2, #5, #13, #14, #25, #27, #29, #31, and #33 were tested at 1, 10, and 100 nM. For dimer structures #42 to #53, tests were conducted at 20 nM and then diluted at 1/4 intervals to four points (0.31, 1.25, 5, and 20 nM).
For % activity, peptides showing 50% or more activity at 1 nM were designated 4-A, those showing ≥50% activity at 10 nM were designated 4-B, those showing ≥50% activity at 100 nM were designated 4-C, and those showing ≥1% but <50% activity at 100 nM were designated 4-D.
Peptides showing ≥50% activity at 0.31 nM were designated 5-A, those with 50% or more activity at 1.25 nM peptide concentration were designated as 5-B, those with 50% or more activity at 5 nM peptide concentration were designated as 5-C, those with 50% or more activity at 20 nM peptide concentration were designated as 5-D, and those with 1% or more but less than 50% activity at 20 nM peptide concentration were designated as 5-E.

Row | SMILES | pERK Assay Results (ERK) | proliferation (HUVEC)
1 | CC(C)C[C@@H]1NC(=O)[C@H](CC(=O)O)NC(=O)[C@H](CC(=O)O)NC(=O)[C@H](CCCCNC(=O)CCOCCOCCOCCOCCOCCOCCOCCOCCOCCOCCOCCOCCOCCOCCOCCOCCOCCC(=O)NCCCC[C@@H]2NC(=O)[C@H](C(C)C)NC(=O)[C@H](CC(=O)O)NC(=O)[C@H](C(C)(C)C)NC(=O)[C@H](Cc3c[nH]c4ccccc34)NC(=O)[C@H](Cc3c[nH]c4ccccc34)NC(=O)CSC[C@@H](C(=O)NCC(N)=O)NC(=O)[C@H](CC(=O)O)NC(=O)[C@H](CCc3ccc(O)cc3)NC(=O)[C@H](Cc3ccc(NC(=N)N)cc3)NC(=O)[C@H](Cc3ccc(O)cc3)NC(=O)[C@H](CC(C)C)NC(=O)[C@H](CC(=O)O)NC(=O)[C@H](CC(=O)O)NC2=O)NC(=O)[C@H](C(C)C)NC(=O)[C@H](CC(=O)O)NC(=O)[C@H](C(C)(C)C)NC(=O)[C@H](Cc2c[nH]c3ccccc23)NC(=O)[C@H](Cc2c[nH]c3ccccc23)NC(=O)CSC[C@@H](C(=O)NCC(N)=O)NC(=O)[C@H](CC(=O)O)NC(=O)[C@H](CCc2ccc(O)cc2)NC(=O)[C@H](Cc2ccc(NC(=N)N)cc2)NC(=O)[C@H](Cc2ccc(O)cc2)NC1=O [compound 45] (I: {CH2CO}-WW[Tle]DVKDDLY[Phe(4-guanidino)][hTyr]DCG-NH2 / II: {CH2CO}-WW[Tle]DVKDDLY[Phe(4-guanidino)][hTyr]DCG-NH2; linker I:6-II:6 via CO(CH2)2(OCH2CH2)17CO; thioether I:N-I:14, II:N-II:14) | 3-C (50% or more activity at 20 nM) | 5-C (50% or more activity at 5 nM peptide concentration)
2 | CC(C)C[C@@H]1NC(=O)[C@H](CC(=O)O)NC(=O)[C@H](CC(=O)O)NC(=O)[C@H](CCCCNC(=O)CCOCCOCCOCCOCCOCCOCCOCCOCCOCCOCCOCCOCCOCCOCCOCCOCCOCCC(=O)NCCCC[C@@H]2NC(=O)[C@H](C(C)C)NC(=O)[C@H](CC(=O)O)NC(=O)[C@H](C(C)(C)C)NC(=O)[C@H](Cc3c[nH]c4ccccc34)NC(=O)[C@H](Cc3c[nH]c4ncccc34)NC(=O)CSC[C@@H](C(=O)NCC(N)=O)NC(=O)[C@H](CC(=O)O)NC(=O)[C@H](CCc3ccc(O)cc3)NC(=O)[C@H](Cc3ccccc3)NC(=O)[C@H](Cc3ccc(O)cc3)NC(=O)[C@H](CC(C)C)NC(=O)[C@H](CC(=O)O)NC(=O)[C@H](CC(=O)O)NC2=O)NC(=O)[C@H](C(C)C)NC(=O)[C@H](CC(=O)O)NC(=O)[C@H](C(C)(C)C)NC(=O)[C@H](Cc2c[nH]c3ccccc23)NC(=O)[C@H](Cc2c[nH]c3ncccc23)NC(=O)CSC[C@@H](C(=O)NCC(N)=O)NC(=O)[C@H](CC(=O)O)NC(=O)[C@H](CCc2ccc(O)cc2)NC(=O)[C@H](Cc2ccccc2)NC(=O)[C@H](Cc2ccc(O)cc2)NC1=O [compound 46] (I: {CH2CO}-[Trp(7-aza)]W[Tle]DVKDDLYF[hTyr]DCG-NH2 / II: {CH2CO}-[Trp(7-aza)]W[Tle]DVKDDLYF[hTyr]DCG-NH2; linker I:6-II:6 via CO(CH2)2(OCH2CH2)17CO; thioether I:N-I:14, II:N-II:14) | 3-C (50% or more activity at 20 nM) | 5-B (50% or more activity at 1.25 nM peptide concentration)
3 | CC(C)C[C@@H]1NC(=O)[C@H](CC(=O)O)NC(=O)[C@H](CC(N)=O)NC(=O)[C@H](CCCCNC(=O)CCOCCOCCOCCOCCOCCOCCOCCOCCOCCOCCOCCOCCOCCOCCOCCOCCOCCC(=O)NCCCC[C@@H]2NC(=O)[C@H](C(C)C)NC(=O)[C@H](CC(=O)O)NC(=O)[C@H](C(C)(C)C)NC(=O)[C@H](Cc3c[nH]c4ccccc34)NC(=O)[C@H](Cc3c[nH]c4ccccc34)NC(=O)CSC[C@@H](C(=O)NCC(N)=O)NC(=O)[C@H](CC(=O)O)NC(=O)[C@H](CCc3ccc(O)cc3)NC(=O)[C@H](Cc3ccccc3)NC(=O)[C@H](Cc3ccc(O)cc3)NC(=O)[C@H](CC(C)C)NC(=O)[C@H](CC(=O)O)NC(=O)[C@H](CC(N)=O)NC2=O)NC(=O)[C@H](C(C)C)NC(=O)[C@H](CC(=O)O)NC(=O)[C@H](C(C)(C)C)NC(=O)[C@H](Cc2c[nH]c3ccccc23)NC(=O)[C@H](Cc2c[nH]c3ccccc23)NC(=O)CSC[C@@H](C(=O)NCC(N)=O)NC(=O)[C@H](CC(=O)O)NC(=O)[C@H](CCc2ccc(O)cc2)NC(=O)[C@H](Cc2ccccc2)NC(=O)[C@H](Cc2ccc(O)cc2)NC1=O [compound 47] (I: {CH2CO}-WW[Tle]DVKNDLYF[hTyr]DCG-NH2 / II: {CH2CO}-WW[Tle]DVKNDLYF[hTyr]DCG-NH2; linker I:6-II:6 via CO(CH2)2(OCH2CH2)17CO; thioether I:N-I:14, II:N-II:14) | 3-C (50% or more activity at 20 nM) | 5-B (50% or more activity at 1.25 nM peptide concentration)
4 | CC(C)[C@@H]1NC(=O)[C@H](CC(=O)O)NC(=O)[C@H](C(C)(C)C)NC(=O)[C@H](Cc2c[nH]c3ccccc23)NC(=O)[C@H](Cc2c[nH]c3ccccc23)NC(=O)CSC[C@@H](C(=O)NCC(N)=O)NC(=O)[C@H](CC(=O)O)NC(=O)[C@H](CCc2ccc(O)cc2)NC(=O)[C@H](Cc2ccc(NC(=N)N)cc2)NC(=O)[C@H](Cc2ccc(O)cc2)NC(=O)[C@H](CC(C)(C)C)NC(=O)[C@H](CC(=O)O)NC(=O)[C@H](CC(=O)O)NC(=O)[C@H](CCCCNC(=O)OCCOCCOCCOCCOCCOCCOCCOCCOCCOCCOCCOCCOCCOCCOCCOCCOC(=O)NCCCC[C@@H]2NC(=O)[C@H](C(C)C)NC(=O)[C@H](CC(=O)O)NC(=O)[C@H](C(C)(C)C)NC(=O)[C@H](Cc3c[nH]c4ccccc34)NC(=O)[C@H](Cc3c[nH]c4ccccc34)NC(=O)CSC[C@@H](C(=O)NCC(N)=O)NC(=O)[C@H](CC(=O)O)NC(=O)[C@H](CCc3ccc(O)cc3)NC(=O)[C@H](Cc3ccc(NC(=N)N)cc3)NC(=O)[C@H](Cc3ccc(O)cc3)NC(=O)[C@H](CC(C)(C)C)NC(=O)[C@H](CC(=O)O)NC(=O)[C@H](CC(=O)O)NC2=O)NC1=O [compound 53] (I: {CH2CO}-WW[Tle]DVKDD[tBuAla]Y[Phe(4-guanidino)][hTyr]DCG-NH2 / II: {CH2CO}-WW[Tle]DVKDD[tBuAla]Y[Phe(4-guanidino)][hTyr]DCG-NH2; linker I:6-II:6 via X1; thioether I:N-I:14, II:N-II:14) | 3-B (50% or more activity at 5 nM) | 5-C (50% or more activity at 5 nM peptide concentration)
